Source: publication PMC4751363
No constants are given. Whether binding was seen depends on the method and setting. Binding seen in cells or lysates may run through a third protein. Some results given as binding are weak or reduced against the parent protein; the word gives no strength. For part of these data: Where a sequence is shown, tags or fusion partners need not be part of it. Values belong to the molecule of their own block, whether it stands above or below them.

The chains behind the UniProt entries cited, without tags or fusion partners. Where a name states a change or a piece, a line headed by the entry shows the natural chain unless it says otherwise. Residues count along the entry.
UniProt F7BWT7: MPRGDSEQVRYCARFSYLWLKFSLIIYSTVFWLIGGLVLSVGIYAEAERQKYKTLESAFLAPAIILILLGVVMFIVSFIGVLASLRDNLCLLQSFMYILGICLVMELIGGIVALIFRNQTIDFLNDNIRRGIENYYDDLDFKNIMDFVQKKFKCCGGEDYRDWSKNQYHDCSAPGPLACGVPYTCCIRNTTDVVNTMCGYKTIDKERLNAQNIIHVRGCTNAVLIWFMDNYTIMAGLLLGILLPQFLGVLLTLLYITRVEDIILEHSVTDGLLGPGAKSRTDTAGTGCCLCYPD
UniProt O35598, residues 215-749: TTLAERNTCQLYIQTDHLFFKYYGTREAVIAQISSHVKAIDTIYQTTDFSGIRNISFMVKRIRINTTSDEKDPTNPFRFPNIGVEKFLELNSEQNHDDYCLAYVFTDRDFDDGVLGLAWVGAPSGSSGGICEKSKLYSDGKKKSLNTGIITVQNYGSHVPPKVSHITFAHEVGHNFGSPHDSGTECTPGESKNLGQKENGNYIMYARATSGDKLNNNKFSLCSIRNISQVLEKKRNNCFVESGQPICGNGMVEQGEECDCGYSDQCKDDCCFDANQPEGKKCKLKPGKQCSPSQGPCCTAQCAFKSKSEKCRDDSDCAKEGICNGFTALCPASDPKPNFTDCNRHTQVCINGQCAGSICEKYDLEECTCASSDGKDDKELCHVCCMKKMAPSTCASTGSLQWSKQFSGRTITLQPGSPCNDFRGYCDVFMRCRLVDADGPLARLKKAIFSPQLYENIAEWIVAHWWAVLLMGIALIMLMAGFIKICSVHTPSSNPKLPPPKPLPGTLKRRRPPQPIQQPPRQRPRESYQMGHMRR
UniProt Q9Z0F8: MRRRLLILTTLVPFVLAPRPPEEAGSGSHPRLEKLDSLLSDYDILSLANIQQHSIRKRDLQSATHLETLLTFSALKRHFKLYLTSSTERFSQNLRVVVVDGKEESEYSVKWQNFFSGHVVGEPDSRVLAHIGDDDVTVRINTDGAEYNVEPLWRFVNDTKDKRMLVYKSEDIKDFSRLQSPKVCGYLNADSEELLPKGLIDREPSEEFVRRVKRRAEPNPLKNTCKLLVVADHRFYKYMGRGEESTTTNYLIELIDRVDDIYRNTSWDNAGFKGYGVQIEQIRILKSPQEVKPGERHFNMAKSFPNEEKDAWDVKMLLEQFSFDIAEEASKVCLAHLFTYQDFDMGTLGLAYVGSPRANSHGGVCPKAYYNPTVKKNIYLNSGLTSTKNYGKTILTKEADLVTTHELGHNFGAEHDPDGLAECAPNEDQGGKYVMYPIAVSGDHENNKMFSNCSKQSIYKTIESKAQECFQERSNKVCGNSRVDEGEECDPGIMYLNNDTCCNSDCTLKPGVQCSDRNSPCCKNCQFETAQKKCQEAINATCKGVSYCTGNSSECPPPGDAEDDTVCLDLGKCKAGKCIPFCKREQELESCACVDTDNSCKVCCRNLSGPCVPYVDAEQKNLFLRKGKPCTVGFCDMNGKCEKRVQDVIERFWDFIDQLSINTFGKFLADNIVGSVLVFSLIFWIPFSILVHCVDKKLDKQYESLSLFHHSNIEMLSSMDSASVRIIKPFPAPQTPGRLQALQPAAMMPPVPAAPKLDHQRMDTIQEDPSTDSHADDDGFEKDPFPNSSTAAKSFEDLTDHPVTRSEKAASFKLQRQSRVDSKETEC

How the values were obtained:
[1] = molecular target: T1, FLAG-tagged mouse Tspan14 (mouse) (UniProt Q8QZY6); assay: co-IP; HEK-293T co-transfected with FLAG-tagged mouse TspanC8s and HA-tagged mouse ADAM10/ADAM17 constructs or pDisplay human ADAM10 truncations; 1% digitonin lysis; anti-FLAG immunoprecipitation; anti-HA blot
T1 sequence: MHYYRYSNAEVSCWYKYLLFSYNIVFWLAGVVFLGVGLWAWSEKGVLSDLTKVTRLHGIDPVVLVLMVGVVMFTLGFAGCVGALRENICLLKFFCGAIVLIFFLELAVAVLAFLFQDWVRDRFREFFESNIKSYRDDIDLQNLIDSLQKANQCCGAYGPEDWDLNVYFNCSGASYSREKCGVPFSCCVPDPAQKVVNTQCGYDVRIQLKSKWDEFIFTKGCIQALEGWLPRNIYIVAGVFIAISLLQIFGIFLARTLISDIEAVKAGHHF

[2] = molecular target: T2, FLAG-tagged mouse Tspan5 (mouse) (UniProt P62080); assay: as above
T2 sequence: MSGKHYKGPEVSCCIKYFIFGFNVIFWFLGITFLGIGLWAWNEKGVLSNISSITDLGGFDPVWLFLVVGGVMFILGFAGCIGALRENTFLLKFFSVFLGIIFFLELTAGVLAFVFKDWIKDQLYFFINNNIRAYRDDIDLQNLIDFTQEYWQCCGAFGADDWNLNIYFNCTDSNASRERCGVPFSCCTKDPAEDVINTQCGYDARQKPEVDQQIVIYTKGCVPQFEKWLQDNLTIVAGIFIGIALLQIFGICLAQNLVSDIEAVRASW

[3] = molecular target: T3, FLAG-tagged mouse Tspan33 (mouse) (UniProt Q8R3S2); assay: as above
T3 sequence: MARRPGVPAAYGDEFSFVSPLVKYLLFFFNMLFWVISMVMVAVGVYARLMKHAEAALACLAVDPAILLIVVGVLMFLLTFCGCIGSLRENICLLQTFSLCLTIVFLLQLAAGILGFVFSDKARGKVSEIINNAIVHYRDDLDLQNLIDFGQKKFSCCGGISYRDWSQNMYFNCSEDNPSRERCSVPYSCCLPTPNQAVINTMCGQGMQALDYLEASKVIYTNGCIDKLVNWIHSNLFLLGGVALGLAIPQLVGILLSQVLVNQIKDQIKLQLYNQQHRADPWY

[4] = molecular target: T4, FLAG-tagged mouse Tspan10 (mouse) (UniProt Q8VCF5); assay: as above
T4 sequence: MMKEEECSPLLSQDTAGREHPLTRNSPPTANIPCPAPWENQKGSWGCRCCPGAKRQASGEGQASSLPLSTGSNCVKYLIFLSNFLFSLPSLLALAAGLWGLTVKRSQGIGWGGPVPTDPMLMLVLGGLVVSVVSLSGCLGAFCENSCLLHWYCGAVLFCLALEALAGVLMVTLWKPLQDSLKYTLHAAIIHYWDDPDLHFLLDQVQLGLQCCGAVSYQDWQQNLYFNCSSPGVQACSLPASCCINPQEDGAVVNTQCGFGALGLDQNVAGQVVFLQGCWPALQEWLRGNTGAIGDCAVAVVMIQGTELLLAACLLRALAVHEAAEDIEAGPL

[5] = molecular target: T5, FLAG-tagged mouse Tspan17 (mouse) (UniProt Q9D7W4); assay: as above
T5 sequence: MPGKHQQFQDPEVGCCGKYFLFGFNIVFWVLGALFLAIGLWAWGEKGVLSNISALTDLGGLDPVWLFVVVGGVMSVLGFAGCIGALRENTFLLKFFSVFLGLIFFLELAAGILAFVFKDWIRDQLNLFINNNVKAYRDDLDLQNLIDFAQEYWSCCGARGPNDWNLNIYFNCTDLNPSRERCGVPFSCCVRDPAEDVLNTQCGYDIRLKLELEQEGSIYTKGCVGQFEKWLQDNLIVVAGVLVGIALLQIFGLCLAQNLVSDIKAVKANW

[6] = molecular target: FLAG-tagged mouse Tspan15 (mouse) (UniProt F7BWT7); assay: as above
[7] = molecular target: A disintegrin and metalloprotease 10 (ADAM10), endogenous human (human (endogenous in platelets and HUVECs)) (UniProt O14672); assay: co-IP; washed human platelets (4 x 10^8 per immunoprecipitation) lysed in 1% digitonin lysis buffer; anti-ADAM10 or isotype-matched control on protein G-Sepharose, 90 min, washed in 0.1% digitonin; non-reducing gels, blots for Tspan14, ADAM10, CD9
[8] = molecular target: A disintegrin and metalloprotease 10 (ADAM10), endogenous human (human (endogenous in platelets and HUVECs)) (UniProt O14672); assay: co-IP; HUVECs (2.2 x 10^6 per immunoprecipitation) lysed in 1% digitonin lysis buffer; anti-ADAM10 or isotype-matched control on protein G-Sepharose; non-reducing gels, blots for Tspan14, ADAM10, CD9
[9] = molecular target: A disintegrin and metalloprotease 10 (ADAM10), endogenous mouse (mouse (endogenous in platelets)) (UniProt O35598); assay: co-IP; washed mouse platelets (1.6 x 10^8 per immunoprecipitation) lysed in 1% digitonin lysis buffer; anti-ADAM10 or isotype-matched control on protein G-Sepharose; non-reducing gels, blots for Tspan14, ADAM10, CD9
[10] = molecular target: T6, A disintegrin and metalloprotease 10 (ADAM10), endogenous human (human (endogenous in platelets and HUVECs)), O14672; assay: co-IP; washed human platelets (4 x 10^8 per immunoprecipitation) lysed in 1% digitonin lysis buffer; anti-ADAM10 or isotype-matched control on protein G-Sepharose, 90 min, washed in 0.1% digitonin; non-reducing gels, blots for Tspan14, ADAM10, CD9; settings: remark: other sources report otherwise
T6 chain: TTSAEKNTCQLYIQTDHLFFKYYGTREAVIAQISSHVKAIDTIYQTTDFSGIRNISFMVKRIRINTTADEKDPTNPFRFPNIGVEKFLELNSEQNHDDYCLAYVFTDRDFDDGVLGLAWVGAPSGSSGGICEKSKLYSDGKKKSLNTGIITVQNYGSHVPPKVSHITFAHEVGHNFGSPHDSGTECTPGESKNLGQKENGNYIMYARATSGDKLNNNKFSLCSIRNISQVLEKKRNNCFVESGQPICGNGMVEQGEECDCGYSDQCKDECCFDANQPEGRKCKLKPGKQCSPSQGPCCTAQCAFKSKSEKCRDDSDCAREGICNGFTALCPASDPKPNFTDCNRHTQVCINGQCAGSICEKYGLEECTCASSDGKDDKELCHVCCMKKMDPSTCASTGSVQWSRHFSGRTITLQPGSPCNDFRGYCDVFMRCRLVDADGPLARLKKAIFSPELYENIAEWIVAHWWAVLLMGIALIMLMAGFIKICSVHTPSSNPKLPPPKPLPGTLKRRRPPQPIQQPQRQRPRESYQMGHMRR

[11] = molecular target: T6, A disintegrin and metalloprotease 10 …; assay: co-IP; HUVECs (2.2 x 10^6 per immunoprecipitation) lysed in 1% digitonin lysis buffer; anti-ADAM10 or isotype-matched control on protein G-Sepharose; non-reducing gels, blots for Tspan14, ADAM10, CD9; settings: remark: other sources report otherwise

Molecule: ADAM17 10DCS chimera (mouse ADAM17 with the ADAM10 disintegrin, cysteine-rich and stalk region), HA-tagged (from UniProt Q9Z0F8 18-474; O35598 458-673; Q9Z0F8 672-827)
binding [2]: binds
binding [1]: binds
binding [3]: binds
binding [4]: binds
binding [5]: binds
binding [6]: binds

Molecule: ADAM17 10S chimera (mouse ADAM17 with the ADAM10 stalk region), HA-tagged (from UniProt Q9Z0F8 18-642; O35598 648-673; Q9Z0F8 672-827)
binding [1]: no binding

B1: Tspan14, endogenous human (protein, UniProt Q8NG11 1-270)
chain: MHYYRYSNAKVSCWYKYLLFSYNIIFWLAGVVFLGVGLWAWSEKGVLSDLTKVTRMHGIDPVVLVLMVGVVMFTLGFAGCVGALRENICLLNFFCGTIVLIFFLELAVAVLAFLFQDWVRDRFREFFESNIKSYRDDIDLQNLIDSLQKANQCCGAYGPEDWDLNVYFNCSGASYSREKCGVPFSCCVPDPAQKVVNTQCGYDVRIQLKSKWDESIFTKGCIQALESWLPRNIYIVAGVFIAISLLQIFGIFLARTLISDIEAVKAGHHF
binding [7]: binds
binding [8]: binds

B2: Tspan14, endogenous mouse (protein, UniProt Q8QZY6 1-270)
chain: MHYYRYSNAEVSCWYKYLLFSYNIVFWLAGVVFLGVGLWAWSEKGVLSDLTKVTRLHGIDPVVLVLMVGVVMFTLGFAGCVGALRENICLLKFFCGAIVLIFFLELAVAVLAFLFQDWVRDRFREFFESNIKSYRDDIDLQNLIDSLQKANQCCGAYGPEDWDLNVYFNCSGASYSREKCGVPFSCCVPDPAQKVVNTQCGYDVRIQLKSKWDEFIFTKGCIQALEGWLPRNIYIVAGVFIAISLLQIFGIFLARTLISDIEAVKAGHHF
binding [9]: binds

B3: CD9, endogenous human, P21926 1-228 (protein)
chain: MPVKGGTKCIKYLLFGFNFIFWLAGIAVLAIGLWLRFDSQTKSIFEQETNNNNSSFYTGVYILIGAGALMMLVGFLGCCGAVQESQCMLGLFFGFLLVIFAIEIAAAIWGYSHKDEVIKEVQEFYKDTYNKLKTKDEPQRETLKAIHYALNCCGLAGGVEQFISDICPKKDVLETFTVKSCPDAIKEVFDNKFHIIGAVGIGIAVVMIFGMIFSMILCCAIRRNREMV
binding [10]: no binding
binding [11]: no binding

More lines, now with the values ahead:

binding [1]: no binding
Molecule: ADAM10 17DCS chimera (mouse ADAM10 with the ADAM17 disintegrin, cysteine-rich and stalk region), HA-tagged (from UniProt O35598 20-457; Q9Z0F8 475-671; O35598 674-749)

binding [1]: no binding
Molecule: ADAM17 10D chimera (mouse ADAM17 with the ADAM10 disintegrin domain), HA-tagged (from UniProt Q9Z0F8 18-474; O35598 458-552; Q9Z0F8 564-827)

binding [1]: no binding
Molecule: ADAM17 10C chimera (mouse ADAM17 with the ADAM10 cysteine-rich domain), HA-tagged (from UniProt Q9Z0F8 18-563; O35598 553-647; Q9Z0F8 643-827)
